Experimental findings from patent US20110229476A1 (Bayer, published 2011) are described below.

In the assay the target is T1, tumor-associated antigen RG1 (Homo sapiens (Human), UniProt Q9BUD6 27-331).
T1 construct: Coated directly on 96-well plates at 1 ug/ml; also called RGI
T1 sequence: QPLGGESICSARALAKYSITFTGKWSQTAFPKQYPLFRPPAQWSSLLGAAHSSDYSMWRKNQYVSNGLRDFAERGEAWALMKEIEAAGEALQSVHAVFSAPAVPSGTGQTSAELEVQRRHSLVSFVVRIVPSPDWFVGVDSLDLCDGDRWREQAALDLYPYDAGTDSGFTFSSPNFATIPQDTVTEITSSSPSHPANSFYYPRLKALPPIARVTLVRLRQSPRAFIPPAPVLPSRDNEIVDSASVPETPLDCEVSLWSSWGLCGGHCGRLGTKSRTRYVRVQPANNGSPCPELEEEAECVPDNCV
The experiment in a line: RG1-binding ELISA, RG1 coated on plate, 4-parameter fit. (ELISA stands for enzyme-linked immunosorbent assay.)

B1: 3E10-Linker1-19G9 IgG-like bispecific antibody (bispecific antibody)
light: NFMLTQPHSVSASPGKTVTISCTRSSGSVASYYVQWYQQRPGSSPTTVIYEDNHRPSGVPDRFSGSIDTSSNSASLTISGLKTEDEADYYCQSYDSNNLVVFGGGTKLTVLGASDDDDK[sequence of about 200 residues omitted]
heavy: QVNLRESGGTLVQPGGSLRLSCAASGFSFTDAWMSWVRQAPGKELEWVSSISGSGGSTYYAGSVKGRFTISRDNSKNTLYLQMNSLRAEDTAVYYCARVLSLTDYYWYGMDVWGQGTLVTVSASDDDDKEVQLVQSGGGLVQPGGSLRLSCAGSGFTFSSYVMHWLRQAPGKGLEWVSVIGTGGVTHYADSVKGRFTISRDNAKNSLYLQMNSLRAEDTAVYYCARWGYYGSGSYENDAFDIWGQGTMVTVSSASTKGPSVFPLAPSSKSTSGGTAALGCLVKDYFPEPVTVSWNSGALTSGVHTFPAVLQSSGLYSLSSVVTVPSSSLGTQTYICNVNHKPSNTKVDKRV[sequence of human IgG1 Fc omitted]
notes: VL3E10-linker-VL19G9-Ckappa and VH3E10-linker-VH19G9-human IgG1 constant region; expressed in CHO-S cells; also called 3E10-Linkerl-19G9
Consider B1, for which the IC50 – broadly, the concentration that gives 50% inhibition – was 1.1 nM. That is a single-digit nanomolar value.
